# Reference: PubChem BioAssay (NCATS)
# Values joined by “and” are separate entries in the source; they are usually repeats but may differ in a detail not shown here. Equal values may be shown once. The shares of active, inactive and inconclusive entries below differ from those in the screen. For part of these data: Potencies beside an inconclusive call are fits to weak or partial responses and may not hold up. Active and inactive are the calls of the source. Calls follow the shape of the dose curve; as a rule, active = well fitted curve in the direction sought with a large enough effect; inconclusive = small, poorly fitted or top-dose-only effect, or another doubt; inactive = no such curve, though single readings can be large; an effect the other way counts as inactive or inconclusive.
# Experiments:
# [1] = qHTS of pediatric cancer cell lines to identify multiple opportunities for drug repurposing: Primary screen for NB1643 cells (AID 1347099); also: nearly all actives have a fitted effect of over 50% in size
# Method in brief: (§1)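 Cells seeded at 500-1,000 cells/well in growth media, rested 5 hours at 37 degrees C, 5% CO2, then dosed; MIPE compounds at 11-point (from 0.78 nM) and NPC at 8-point (from 0.59 nM) final concentrations. Viability by CellTiter-Glo luminescence after 48 hours.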
# [2] = qHTS of pediatric cancer cell lines to identify multiple opportunities for drug repurposing: Primary screen for LAN-5 cells (AID 1347100); conditions: LAN-5 neuroblastoma viability, CellTiter-Glo luminescence, 48 h; activity change, negative = cytotoxic: at 46 µM (top of the series)
# Method in brief: (§2)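 Viability after 48 h compound treatment at 37C, 500-1,000 cells/well, read as ATP luminescence with CellTiter-Glo. Primary screens used 11-point (MIPE, 0.78 nM-46 µM) or 8-point (NPC, 0.59 nM-46 µM) final concentrations; follow-up screens used 11-point dilutions.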
# [3] = qHTS of pediatric cancer cell lines to identify multiple opportunities for drug repurposing: Primary screen for BT-12 cells (AID 1347101); also: nearly all actives have a fitted effect of over 25% in size
# Method in brief: (§3)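 Cells (500-1,000/well) rested 5 h, then received compounds for 48 h; metabolically active cells were measured by CellTiter-Glo luminescence. Final concentrations spanned up to 46 µM (MIPE, 11-point) or 0.59 nM-46 µM (NPC, 8-point) in primary screens, 11-point in follow-ups.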
# [4] = qHTS of pediatric cancer cell lines to identify multiple opportunities for drug repurposing: Primary screen for Rh18 cells (AID 1347102); conditions: Rh18 rhabdomyosarcoma viability, CellTiter-Glo luminescence, 48 h; activity change, negative = cytotoxic: at 46 µM (top of the series); also: nearly all actives have a fitted effect of over 65% in size
# Method in brief: as §2
# [5] = qHTS of pediatric cancer cell lines to identify multiple opportunities for drug repurposing: Primary screen for OHS-50 cells (AID 1347103); also: nearly all actives have a fitted effect of over 40% in size
# Method in brief: as §3
# [6] = qHTS of pediatric cancer cell lines to identify multiple opportunities for drug repurposing: Primary screen for RD cells (AID 1347104); also: nearly all actives have a fitted effect of over 55% in size
# Method in brief: as §1
# [7] = qHTS of pediatric cancer cell lines to identify multiple opportunities for drug repurposing: Primary screen for control Hh wild type fibroblast cells (AID 1347106); also: nearly all actives have a fitted effect of over 55% in size
# Method in brief: as §2
# [8] = qHTS of pediatric cancer cell lines to identify multiple opportunities for drug repurposing: Primary screen for MG 63 (6-TG R) cells (AID 1347105); conditions: MG 63 (6-TG R) viability, CellTiter-Glo, 48 h; activity change, negative = cytotoxic: at 46 µM (top of the series); also: nearly all actives have a fitted effect of over 50% in size
# Method in brief: as §1
# [9] = qHTS of pediatric cancer cell lines to identify multiple opportunities for drug repurposing: Primary screen for SK-N-SH cells (AID 1347098); conditions: SK-N-SH viability, CellTiter-Glo luminescence, 48 h; activity change, negative = cytotoxic: at 57 µM (top of the series); also: nearly all actives have a fitted effect of over 65% in size;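 as to activity change, negative = cytotoxic: DMSO served as neutral control and bortezomib at 2.3 µM as positive control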
# Method in brief: as §3
# Potency is read from the fitted curve at half-maximal effect; tags tell the direction and shape of the fitted curve.
structure (smiles),measurement,setting,value
CC[C@]1(O)C[C@@H]2CN(CCc3c([nH]c4ccccc34)[C@@](C(=O)OC)(c3cc4c(cc3OC)N(C)[C@H]3[C@@](O)(C(=O)OC)[C@H](OC(C)=O)[C@]5(CC)C=CCN6CC[C@]43[C@@H]65)C2)C1,Potency,[1],"inconclusive: 0.075 µM [cytotoxic, full curve]"
same,Potency,[2],"inconclusive: 26.6 µM [cytotoxic, single point] and active: 133 nM"
same,Potency,[3],active: 43.7 nM and active: 347 nM
same,Potency,[4],"inconclusive: 1.68 µM [cytotoxic, partial curve] and inconclusive: 10.6 µM [cytotoxic, partial curve, poor fit]"
same,Potency,[5],active: 30.9 nM and active: 138 nM
same,Potency,[6],active: 21.1 nM and active: 211 nM
same,Potency,[7],"inconclusive: 33.5 µM [cytotoxic, single point] and inconclusive: 94.4 nM [cytotoxic, full curve]"
Nc1c2ccccc2nc2ccccc12,Potency,[1],"inconclusive: 2.66 µM [cytotoxic, partial curve]"
same,Potency,[2],"inconclusive: 2.99 µM [cytotoxic, full curve]"
same,Potency,[3],active: 12.3 µM
same,Potency,[4],"inconclusive: 29.9 µM [cytotoxic, single point]"
same,Potency,[7],"inconclusive: 29.9 µM [cytotoxic, single point]"
CCN[C@H]1C[C@H](C)S(=O)(=O)c2sc(S(N)(=O)=O)cc21,Potency,[1],inactive
CCCCCCCCCCCCCCCC[N+](C)(C)CCN(Cc1ccc(OC)cc1)c1ncccn1,Potency,[1],"inconclusive: 21.1 µM [cytotoxic, single point]"
same,Potency,[2],active: 23.7 µM
same,Potency,[5],active: 6.92 µM
same,Potency,[6],"inconclusive: 29.9 µM [cytotoxic, single point]"
same,Potency,[8],"inconclusive: 33.5 µM [cytotoxic, single point]"
same,Potency,[7],"inconclusive: 33.5 µM [cytotoxic, single point]"
CC[C@@]1(c2ccccc2)NC(=O)N(C)C1=O,Potency,[1],inactive
same,Potency,[3],inactive
same,Potency,[4],inactive
CC[C@H](C)n1cc(C)c2c(C(=O)NCc3c(C)cc(C)[nH]c3=O)cc(-c3ccc(N4CCNCC4)nc3)cc21,Potency,[1],active: 1.66 µM
same,Potency,[2],active: 23.5 µM
same,Potency,[4],"inconclusive: 26.4 µM [cytotoxic, single point]"
same,Potency,[5],active: 24.3 µM
same,Potency,[6],active: 4.69 µM
C[C@H](CCC(=O)O)[C@H]1CC[C@H]2[C@@H]3C(=O)C[C@@H]4CC(=O)CC[C@]4(C)[C@H]3CC(=O)[C@]12C,Potency,[9],inactive
same,Potency,[6],inactive
O=C1NC(=O)C(=Cc2ccc3nccc(-c4ccncc4)c3c2)S1,Potency,[1],active: 1.32 µM
same,Potency,[2],active: 0.743 µM
OCCN1CCN(CCCN2c3ccccc3Sc3ccc(Cl)cc32)CC1,Potency,[1],"inconclusive: 26.6 µM [cytotoxic, single point]"
same,Potency,[3],"inconclusive: 34.7 µM [cytotoxic, single point]"
same,Potency,[4],"inconclusive: 29.9 µM [cytotoxic, single point]"
same,Potency,[5],active: 24.6 µM
same,Potency,[6],"inconclusive: 29.9 µM [cytotoxic, single point]"
same,Potency,[8],"inconclusive: 33.5 µM [cytotoxic, single point]"
same,Potency,[7],"inconclusive: 18.8 µM [cytotoxic, single point]"
CC(C)C[C@H](NC(=O)[C@H](Cc1ccccc1)NC(=O)c1cnccn1)B(O)O,Potency,[9],active: 0.0429 µM
same,Potency,[7],active: 0.0743 µM
COc1ccc(S(=O)(=O)Nc2cccnc2Nc2ccc(O)cc2)cc1,Potency,[9],"inconclusive: 0.0271 µM [cytotoxic, full curve]"
same,Potency,[5],active: 0.306 µM
same,Potency,[6],"inconclusive: 0.187 µM [cytotoxic, full curve]"
same,Potency,[8],"inconclusive: 0.743 µM [cytotoxic, full curve]"
same,Potency,[7],"inconclusive: 0.296 µM [cytotoxic, full curve, poor fit]"
CN(CC=CC#CC(C)(C)C)Cc1cccc2ccccc12,Potency,[1],"inconclusive: 29.6 µM [cytotoxic, single point]"
Cc1ccc(C(=O)C(C)CN2CCCCC2)cc1 (configuration not stated),Potency,[1],inactive
COc1cc(C=C2CCC/C(=C\c3ccc(O)c(OC)c3)C2=O)ccc1O,Potency,[1],"inconclusive: 9.44 µM [cytotoxic, partial curve]"
same,Potency,[3],active: 11 µM
same,Potency,[4],"inconclusive: 21.1 µM [cytotoxic, single point]"
same,Potency,[6],active: 10.6 µM
same,Potency,[8],"inconclusive: 33.5 µM [cytotoxic, single point]"
CN1CCCN(C(c2ccccc2)c2ccc(Cl)cc2)CC1 (configuration not stated),Potency,[1],"inconclusive: 29.9 µM [cytotoxic, single point]"
same,Potency,[2],active: 15 µM
same,Potency,[3],"inconclusive: 34.7 µM [cytotoxic, single point]"
same,Potency,[4],"inconclusive: 16.8 µM [cytotoxic, single point]"
same,Potency,[6],"inconclusive: 26.6 µM [cytotoxic, single point]"
